Reference: the BET-seq Pho4 binding data (Le et al. 2018)
This is one part of the list. Values were computed here from the reads of four pooled replicates and scatter widely.

What follows are sequences tested against T1, Pho4 (S. cerevisiae) (UniProt P07270) (assay: relative binding free energy (BET-seq); higher = weaker binding). Settings: reference: library average.
T1 sequence: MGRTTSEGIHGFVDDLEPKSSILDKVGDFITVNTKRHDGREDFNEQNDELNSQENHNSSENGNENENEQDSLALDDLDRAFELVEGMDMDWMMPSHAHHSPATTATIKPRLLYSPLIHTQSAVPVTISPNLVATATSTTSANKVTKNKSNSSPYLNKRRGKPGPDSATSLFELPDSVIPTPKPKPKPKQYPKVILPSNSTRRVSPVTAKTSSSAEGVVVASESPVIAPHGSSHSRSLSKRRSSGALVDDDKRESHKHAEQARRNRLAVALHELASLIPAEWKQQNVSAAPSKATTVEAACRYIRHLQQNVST

Sequence	relative binding free energy
ATAGACACGTGTATGA	0.08 kcal/mol
AGGAACACGTGCTTTT	0.08 kcal/mol
TATCTCACGTGTTTTA	0.12 kcal/mol
CAATGCACGTGGGGTA	-0.18 kcal/mol
GGATACACGTGGTTTG	0.1 kcal/mol
CTATTCACGTGTTTGT	0.13 kcal/mol
TTCATCACGTGTAGTG	0.09 kcal/mol
TTTGCCACGTGTAGGC	0.16 kcal/mol
GTTCACACGTGTGGGT	0.21 kcal/mol
GGGCACACGTGGAGGG	0.02 kcal/mol
TGCTGCACGTGGCGTT	-0.07 kcal/mol
GGGAACACGTGGTGTT	-0.02 kcal/mol
TAGTGCACGTGCGTGA	-0.06 kcal/mol
TCGTGCACGTGGGAAT	-0.06 kcal/mol
CGGGTCACGTGATGTA	0.3 kcal/mol
TATGTCACGTGTGGAC	0.07 kcal/mol
GTAAACACGTGGGGCT	-0.12 kcal/mol
AGGGTCACGTGGGGAG	0.08 kcal/mol
GAGGGCACGTGGTGGG	-0.01 kcal/mol
TCGTTCACGTGACGTT	0.31 kcal/mol
GAGTCCACGTGGGAGT	-0.02 kcal/mol
TCATTCACGTGTTGTG	0.2 kcal/mol
GGTTTCACGTGGTAAT	0.33 kcal/mol
ATTTTCACGTGGGATT	0.37 kcal/mol
GGATTCACGTGTGTCG	0.12 kcal/mol

Sequence	relative binding free energy
TGGGACACGTGAGTGG	0.21 kcal/mol
ACGTTCACGTGTGGTG	0.19 kcal/mol
AGTTTCACGTGAGATT	0.37 kcal/mol
ACGGGCACGTGACGTG	0.04 kcal/mol
ATGTGCACGTGTGGTT	0 kcal/mol
TATCACACGTGGGCGG	-0.03 kcal/mol
AGTGACACGTGGCAGT	-0.05 kcal/mol
CAAATCACGTGTGTGG	0.31 kcal/mol
GCTGTCACGTGTTTTG	0.11 kcal/mol
ATCGACACGTGTAGTT	0.1 kcal/mol
GTGACCACGTGGTTTG	-0.1 kcal/mol
GAATTCACGTGTTAAG	0.45 kcal/mol
CTGCGCACGTGTTGAT	-0.05 kcal/mol
AGGACCACGTGCGGGT	-0.1 kcal/mol
GTCTGCACGTGGGAGC	0.07 kcal/mol
GGCGACACGTGTGTAT	0.15 kcal/mol
GTCTACACGTGGAGTT	0.13 kcal/mol
TATTGCACGTGCGGTA	-0.16 kcal/mol
TGTGTCACGTGCATAG	0.08 kcal/mol
AATAGCACGTGAAGTG	0.07 kcal/mol
AGCGACACGTGTGGTT	0.09 kcal/mol
ACTGTCACGTGGGGGA	-0.11 kcal/mol
TGCTGCACGTGGGTTT	-0.09 kcal/mol
ATACTCACGTGTTAGT	0.14 kcal/mol
GGTGCCACGTGAAAGT	0.27 kcal/mol

Sequence	relative binding free energy
GGTACCACGTGGATGG	0.08 kcal/mol
TGAGTCACGTGGATGG	0.03 kcal/mol
TTTTACACGTGAGTGC	0.24 kcal/mol
TGTCACACGTGTGGAT	-0.03 kcal/mol
GATTGCACGTGTTTAT	0.06 kcal/mol
GGTGTCACGTGACGCG	0.24 kcal/mol
GTTTTCACGTGTGCTA	0.33 kcal/mol
AATTTCACGTGGAGCT	0.37 kcal/mol
GTATACACGTGTATTA	0.04 kcal/mol
ATTGTCACGTGGGCTG	-0.1 kcal/mol
CATTGCACGTGGTGGC	-0.07 kcal/mol
TGGTCCACGTGTTTCG	0.12 kcal/mol
TGAGGCACGTGACGTG	-0.02 kcal/mol
TCGGCCACGTGGGAGT	-0.02 kcal/mol
GTGTACACGTGAAGTA	0.37 kcal/mol
TATAACACGTGGAATA	0.14 kcal/mol
AGGGGCACGTGGCTCG	-0.24 kcal/mol
AAAGGCACGTGAGGAT	0.18 kcal/mol
GCATGCACGTGAGGGT	0.04 kcal/mol
ATGGTCACGTGTCGGT	0.29 kcal/mol
AGGTGCACGTGCGTAA	-0.12 kcal/mol
GTATGCACGTGTATGA	0.08 kcal/mol
TTGAACACGTGGGTTC	-0.18 kcal/mol
GGATGCACGTGCAAGG	0.01 kcal/mol
GGTTTCACGTGGGGCG	0.23 kcal/mol

Sequence	relative binding free energy
CGCTACACGTGGGTGG	-0.12 kcal/mol
GGCTGCACGTGTGCGA	0.09 kcal/mol
ACTTGCACGTGTTTAT	-0.01 kcal/mol
TCGTTCACGTGTTTTA	0.16 kcal/mol
ATTAGCACGTGTTGAG	-0.07 kcal/mol
TAGATCACGTGTAAGT	0.19 kcal/mol
AGGGGCACGTGGACTT	-0.16 kcal/mol
TGTGGCACGTGCCTAG	-0.13 kcal/mol
GAGCACACGTGATGGG	0.29 kcal/mol
GTCTTCACGTGTCTTG	0.23 kcal/mol
TTAGTCACGTGGGCTT	0.01 kcal/mol
GACTTCACGTGTGGTT	0.29 kcal/mol
AGAGTCACGTGTTAGG	0.15 kcal/mol
TGATACACGTGGGTCG	-0.1 kcal/mol
TGTACCACGTGGAAGG	0.14 kcal/mol
CAGTGCACGTGGGAGA	-0.15 kcal/mol
GATATCACGTGCTGTT	0.21 kcal/mol
ATATTCACGTGTTATT	0.03 kcal/mol
ATGTTCACGTGTAGAT	0.37 kcal/mol
TTTGACACGTGACATG	0.1 kcal/mol
GGTGGCACGTGTACGG	0.09 kcal/mol
TATTACACGTGTTCTG	0.04 kcal/mol
GAGGACACGTGGAAGG	0.15 kcal/mol
TTCAGCACGTGGAGTA	-0.06 kcal/mol
AGAGTCACGTGGTGGT	0.03 kcal/mol

Sequence	relative binding free energy
TTCGCCACGTGGTGGG	-0.02 kcal/mol
TGGCACACGTGGATTG	0.11 kcal/mol
AGGTGCACGTGTTATG	0.09 kcal/mol
TAGAACACGTGTGTGG	-0.06 kcal/mol
AGGGGCACGTGTGGAT	0.02 kcal/mol
CCGGTCACGTGGTTGG	0.09 kcal/mol
ATGTTCACGTGTATAA	0.24 kcal/mol
AGAGGCACGTGTTATT	-0.09 kcal/mol
AAATGCACGTGGGGGG	-0.06 kcal/mol
TATCGCACGTGGTTAG	-0.05 kcal/mol
TTCGTCACGTGGGACG	0 kcal/mol
TGTACCACGTGAAGGA	0.38 kcal/mol
TAAGTCACGTGATGGA	0.16 kcal/mol
GGTTGCACGTGGGTTC	-0.03 kcal/mol
ACTGGCACGTGAATGG	0.06 kcal/mol
GGGGACACGTGTCATG	-0.06 kcal/mol
TTTGGCACGTGGAGCG	-0.14 kcal/mol
TAGTGCACGTGACTAG	0.12 kcal/mol
TTTATCACGTGCTCTG	0.14 kcal/mol
TGCGGCACGTGCTTAG	-0.13 kcal/mol
TGGTGCACGTGGCACG	-0.05 kcal/mol
AGTTGCACGTGCAGGT	-0.02 kcal/mol
CCTGGCACGTGTGTGA	0 kcal/mol
GTCATCACGTGGGATT	0.1 kcal/mol
AATGGCACGTGACGGG	0 kcal/mol

Sequence	relative binding free energy
AGGGGCACGTGATGTC	-0.08 kcal/mol
TGAGTCACGTGCGTGA	0.03 kcal/mol
CGGCTCACGTGGAGGG	0.06 kcal/mol
ATGTACACGTGATGGT	0.15 kcal/mol
TGGCCCACGTGGGTGT	-0.24 kcal/mol
GTATTCACGTGAGTGA	0.45 kcal/mol
GCGGTCACGTGGTTGG	0.2 kcal/mol
TAGATCACGTGCTTTT	0.06 kcal/mol
CAGTGCACGTGTAGGA	-0.02 kcal/mol
TTAGACACGTGGAATG	0.01 kcal/mol
TACTGCACGTGCGGGT	-0.06 kcal/mol
GAAGACACGTGTGGTG	0.24 kcal/mol
TTACACACGTGTTGGT	-0.03 kcal/mol
TAAAACACGTGTTAGT	-0.06 kcal/mol
AGTGGCACGTGGGATA	-0.28 kcal/mol
AGTTACACGTGGAGTA	0.04 kcal/mol
CTGGTCACGTGGTAGT	-0.03 kcal/mol
GTTGTCACGTGTCGCG	0.05 kcal/mol
ATGGTCACGTGCGTTC	0.1 kcal/mol
AGATTCACGTGGGCAT	0.31 kcal/mol
AGGCACACGTGTGGGT	0.05 kcal/mol
